Test results published in article PMC4336329 (PLoS ONE, 2015).
Screen size: about 310,000 compounds; about 14,000 (4.5%) showed an effect of 50% or more. Effects have a minus sign here. The list shows a part of the results.

The compounds below were run against human ether-à-go-go-related gene (hERG) potassium channel (human, UniProt Q12809) (assay: primary screen, population patch clamp on CHO cells stably expressing hERG).
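Further: peak tail current of the secondary pulse compared with the same well before compound.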

human ether-à-go-go-related gene (hERG) potassium channel, sequence (Q12809 whole entry, looked up): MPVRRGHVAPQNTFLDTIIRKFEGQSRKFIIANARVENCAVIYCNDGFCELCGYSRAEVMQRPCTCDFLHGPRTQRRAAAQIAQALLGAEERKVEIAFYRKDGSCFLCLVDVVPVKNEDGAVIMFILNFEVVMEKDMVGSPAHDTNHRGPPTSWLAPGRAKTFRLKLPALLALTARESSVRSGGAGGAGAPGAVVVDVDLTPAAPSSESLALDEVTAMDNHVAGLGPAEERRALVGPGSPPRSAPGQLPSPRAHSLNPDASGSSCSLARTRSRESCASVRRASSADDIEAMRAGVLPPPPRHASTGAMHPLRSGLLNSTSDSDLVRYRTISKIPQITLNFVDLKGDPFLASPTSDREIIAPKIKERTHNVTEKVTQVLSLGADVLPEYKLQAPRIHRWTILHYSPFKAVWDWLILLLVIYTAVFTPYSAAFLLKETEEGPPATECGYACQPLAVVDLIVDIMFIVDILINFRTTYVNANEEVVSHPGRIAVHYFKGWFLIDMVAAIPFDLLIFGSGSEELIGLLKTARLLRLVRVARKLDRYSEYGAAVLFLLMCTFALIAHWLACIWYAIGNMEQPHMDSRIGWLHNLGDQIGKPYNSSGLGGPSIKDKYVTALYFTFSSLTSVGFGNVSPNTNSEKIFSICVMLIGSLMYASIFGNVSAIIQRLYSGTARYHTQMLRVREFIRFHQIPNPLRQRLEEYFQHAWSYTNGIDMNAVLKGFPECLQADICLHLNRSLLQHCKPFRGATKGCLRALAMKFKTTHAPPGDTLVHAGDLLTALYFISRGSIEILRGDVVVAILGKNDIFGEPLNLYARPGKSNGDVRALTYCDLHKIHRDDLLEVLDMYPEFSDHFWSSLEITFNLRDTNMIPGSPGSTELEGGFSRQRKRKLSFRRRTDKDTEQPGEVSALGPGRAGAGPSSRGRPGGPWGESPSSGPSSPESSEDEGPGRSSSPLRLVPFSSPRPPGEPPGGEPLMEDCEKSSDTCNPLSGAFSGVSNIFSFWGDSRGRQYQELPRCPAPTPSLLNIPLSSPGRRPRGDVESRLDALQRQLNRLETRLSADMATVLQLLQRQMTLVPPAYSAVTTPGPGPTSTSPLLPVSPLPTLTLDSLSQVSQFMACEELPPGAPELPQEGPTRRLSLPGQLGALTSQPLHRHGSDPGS

Compound | hERG current change (%, negative = inhibition) at 10uM [%]
COc1cc(CNc2cccc(F)c2)cc(Br)c1O | 5.27
O=[N+]([O-])c1cc(Cl)ccc1N1CCN(c2cccc(C(F)(F)F)c2)CC1 | 9.63
COc1ccc(C)cc1NC(=O)N1CCC2(CC1)OCCO2 | 22
Fc1ccc(-n2c(Cn3nnc4ccccc43)n[nH]c2=S)cc1 | 41.2
CC(C)c1ccc(C2C(C#N)=C(N)Oc3c2oc(CO)cc3=O)cc1 (stereo not drawn) | -10.2
CCCc1nc2ccccc2c(C(=O)OC(C)C(=O)NCc2ccc3c(c2)OCO3)c1CC (stereo not drawn) | 1.12
CCOc1ccc(C(=O)OCc2nnc(-c3cccs3)o2)cc1OC | -54.9
CCCCn1c(N)c(N(CCC(C)C)C(=O)c2cccc(-n3cnnn3)c2)c(=O)[nH]c1=O | -7.92
COc1ccc(C2(C)NC(=O)N(CC(=O)Nc3ccc(Br)cc3F)C2=O)cc1OC (stereo not drawn) | 17.8
Nc1cc(Cl)nc(N/N=C/c2ccccc2[N+](=O)[O-])n1 | 5.06
Cc1ccc(C(=O)NCC(=O)OCC(=O)c2c(N)n(C)c(=O)n(C)c2=O)s1 | 9.14
COc1ccccc1N1CC(C(=O)OCc2nc(N)nc(Nc3ccccc3)n2)CC1=O (stereo not drawn) | -15.8
N#CC(C#N)=Cc1cc2ccccc2nc1N1CCOCC1 | 20.9
COc1ccc(NC(=O)Cc2nc3ccccc3[nH]2)cc1 | -25.5
Cl.O=C(NCCN1CCCC1)C(c1ccccc1)c1ccccc1 | -23.4
CCOC(=O)C1=C(N)OC2=C(C(=O)CC(C)(C)C2)C1c1ccco1 (stereo not drawn) | -14.3
Cl.O=C(CN1CCN(c2cccc(C(F)(F)F)c2)CC1)Nc1cccc(C(F)(F)F)c1 | -1.14
O=C1C2C(C(=O)N1c1ccncc1)C1C=CC2C12CC2 (stereo not drawn) | 0.773
O=C(CC1C(=O)NCCN1Cc1cccc(F)c1)NCCCN1CCCC1=O (stereo not drawn) | -0.642

Compound | hERG current change (%, negative = inhibition) at 10uM [%]
COc1ccc(OC)c(NC2c3ccccc3C(=O)N2Cc2ccc3c(c2)OCO3)c1 (stereo not drawn) | -19.4
CCCCSc1nnc(CNC(=O)C23CC4CC(CC(C4)C2)C3)n1Cc1ccccc1 | -29.7
Cc1ccc(C(O)c2nccn2C)o1 (stereo not drawn) | 15.4
O=S(=O)(/N=C(\c1ccccc1F)N1CCCCC1)c1ccccc1 | -8.95
Cc1cc(C)c(CSc2ncc(-c3ccc([N+](=O)[O-])cc3)[nH]2)c(C)c1 | -10.2
N#Cc1nc(-c2ccccc2F)oc1NCCc1ccccc1 | 20.2
Cc1cc(=O)c2n(Cc3ccc(Cl)cc3)nc[n+]2[nH]1.[Cl-] | -5.12
COc1ccc(N2CCN(C(=O)c3cccs3)CC2)cc1 | 7.37
CC(=O)Nc1cccc(NC(=O)Cc2nc(-c3ccccc3)sc2-c2ccc(C)cc2)c1 | 13.1
COc1ccccc1N1CCN(C(=O)c2cn(C)c3ccc(S(=O)(=O)N4CCOCC4)cc3c2=O)CC1 | 0.635
Cc1cc(NC(=O)CSc2ccc(F)cc2)no1 | 6.82
Cc1ccc(S(=O)(=O)N2CCCC2C(=O)NC2=NCCS2)cc1 (stereo not drawn) | 11.4
CCO[C@@H]1OC(C(=O)O)=C[C@H](c2ccc(Br)cc2)[C@H]1CCCO | 20.6
COc1cccc(NC(=O)CCS(=O)(=O)c2cc3c(cc2Cl)NC(=O)CO3)c1 | -30.9
COC(=O)n1c(=O)oc2ccc(S(=O)(=O)N3CCCCC3)cc21 | 5.68
CN1CCN(CC(=O)NC(=O)NC2CCCCC2)CC1 | 3.76
CCC(=O)Nc1cccc(NC(=O)CSc2nnc(-c3ccc(NS(C)(=O)=O)cc3)n2CC)c1 | 14.4
CCCNC(=O)c1cc(S(=O)(=O)N2CCc3ccccc32)ccc1F | -6.05
CC1(C)CC(NS(=O)(=O)c2ccc(C(C)(C)C)cc2)CC(C)(C)N1 | -6.24

Compound | hERG current change (%, negative = inhibition) at 10uM [%]
Cc1ccc(NC(=O)CNCc2ccccc2)c(Br)c1 | 0.831
COc1ccc(OC)c(S(=O)(=O)N/N=C(/C)c2c[nH]c3ccccc23)c1 | 14.1
CCOC(=O)c1cc2ccc(OC)c(OC)c2c(=O)s1 | 4.59
O=S(=O)(NCCNS(=O)(=O)c1ccc(F)cc1)c1ccc(F)cc1 | -18
Cn1c(SCC(=O)NNC(=O)c2ccc(Br)cc2)nnc1-c1cccnc1 | 25.6
COc1ccc2c(CN3CC=C(c4ccccc4)CC3)cc(=O)oc2c1 | 10.8
O=C(NCc1cccs1)C1CCCN1C(=O)Nc1ccc(F)cc1 (stereo not drawn) | 7.93
COc1cc(N/C(N)=N/c2nc(C)cc(C)n2)cc(OC)c1 | -49.8
N#C/C(=C(\O)Cc1ccccc1)c1nc2ccccc2[nH]1 | 15.6
COc1ccccc1Nc1nnc(C)c(=O)[nH]1 | 4.89
CC(C)(C)NC(=O)C1CC(=O)OC12CCCCC2 (stereo not drawn) | 4.77
COc1ccc(CN2CCSCC2)c(C)c1C | 17.6
CN1CCCN(C(=O)c2ccc(Br)cc2)CC1 | 1.16
Cc1ccc(N2C(=O)NC(NC(=O)C3CC3)(C(F)(F)F)C2=O)cc1 (stereo not drawn) | -13.5
O=C(N/N=C/c1c(Cl)nc2ccccn2c1=O)c1cccnc1 | 5.54
Cc1cc(-n2c(SCC(=O)Nc3ccc(Br)cc3)nc3n[nH]c(C)c3c2=N)ccc1Cl | 19.7
CC(NS(=O)(=O)c1ccc(Br)cc1)C(N)=O (stereo not drawn) | 9.92
CSc1nc(-c2ccccc2)c(C#N)c(=O)[nH]1 | -5.88
O=C(NCCCn1ccnc1)/C(=C\c1ccc(Br)cc1)NC(=O)c1ccccc1 | -75.8
